The values that follow come from the supplement of paper PMC12217912.

The list shows a part of the results. The full chains were built here from the parent and the listed change. Values near 0.05 are background.

The chains are these.
B1: TEV protease; numbered along this chain (parent)
chain: MGESLFKGPRDYNPISSSICHLTNESDGHTTSLYGIGFGPFIITNKHLFRRNNGTLVVQSLHGVFKVKDTTTLQQHLVDGRDMIIIRMPKDFPPFPQKLKFREPQREERICLVTTNFQTKSMSSMVSDTSCTFPSGDGIFWKHWIQTKDGQCGSPLVSTRDGFIVGIHSASNFTNTNNYFTSVPKNFMELLTNQEAQQWVSGWRLNADSVLWGGHKVFMVKPEEPFQPVKEATQL
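Further: Bxb1 expression induced with 0.2% (w/v) L-rhamnose at OD600 near 0.5, cultures sampled hourly, flipped fraction per protease–substrate barcode pair counted by paired-end Illumina sequencing.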

The variants in this assay derive from B1. The assay can be described thus: raw area under fraction-flipped curve 0-4 h after induction (AUC4h, not background-subtracted), DNA-recorder readout of cleavage of the substrate (dimensionless); higher = more cleavage of the substrate by the protease variant. The conditions noted are these: temperature: 34 °C; time window: 0-4 h after rhamnose induction.
On to MGESLFKGPRDYNPISSSICHLTNESDGHTTSLYDIGFGPFIITNKHLFRRNNGTLVVQSLHGVFKVKDTTTLQQHLVDGRDMIIIRMPKDFPPFPQKLKFREPQREERICLVTTNFQTKSMSSMVSDTSCTFPSGDGIFWKHWIQTKDGQCGSPLVSTRDGFIVGIHSASNFTNTNNYFTSVPKNFMELLTNQEAQQWVSGWRLNADSVLWGGHKVFMVKPEEPFQPVKEATQL [G35D], for which the “area with substrate ENLYEQS” value came out at 0.034, the “area with substrate ENLYHQS” value came out at 0.0442, the “area with substrate ENLYIQS” value was determined as 0.031 and the “area with substrate ENLYKQS” value amounted to 0.0381. Also, the “area with substrate ENLYPQS” value stood at 0.0411, the “area with substrate ENLYRQS” value amounted to 0.0553, the “area with substrate ENLYVQS” value is 0.0509 and the “area with substrate ENLYWQS” value is 0.0463.

Regarding MGESLFKGPRDYNPISSSICHLTNESDGHTTSLYGICFGPFIITNKHLFRRNNGTLVVQSLHGVFKVKDTTTLQQHLVDGRDMIIIRMPKDFPPFPQKLKFREPQREERICLVTTNFQTKSMSSMVSDTSCTFPSGDGIFWKHWIQTKDGQCGSPLVSTRDGFIVGIHSASNFTNTNNYFTSVPKNFMELLTNQEAQQWVSGWRLNADSVLWGGHKVFMVKPEEPFQPVKEATQL [G37C], the “area with substrate ENLYEQS” value was determined as 0.0682, the “area with substrate ENLYGQS” value came out at 0.0383, the “area with substrate ENLYKQS” value came out at 0.0566 and the “area with substrate ENLYMQS” value came to 0.0791. The “area with substrate ENLYNQS” value is 0.0683, the “area with substrate ENLYPQS” value turned out to be 0.0665, the “area with substrate ENLYTQS” value came out at 0.104 and the “area with substrate ENLYWQS” value was found to be 0.0635.

With MGESLFKGPRDYNPISSSICHLTNESDGHTTSLYGIGFGPFIITNKHLFRHNNGTLVVQSLHGVFKVKDTTTLQQHLVDGRDMIIIRMPKDFPPFPQKLKFREPQREERICLVTTNFQTKSMSSMVSDTSCTFPSGDGIFWKHWIQTKDGQCGSPLVSTRDGFIVGIHSASNFTNTNNYFTSVPKNFMELLTNQEAQQWVSGWRLNADSVLWGGHKVFMVKPEEPFQPVKEATQL [R51H], the “area with substrate ENLYEQS” value stood at 0.0604.

In the case of MGESLTKGPRDYNPISSSICHLTNESDGHTTSLYGIGFGPFIITNKHLFRRNNGTLVVQSLHGVFKVKDTTTLQQHLVDGRDMIIIRMPKDFPPFPQKLKFREPQREERICLVTTNFQTKSMSSMVSDTSCTFPSGDGIFWKHWIQTKDGQCGSPLVSTRDGFIVGIHSASNFTNTNNYFTSVPKNFMELLTNQEAQQWVSGWRLNADSVLWGGHKVFMVKPEEPFQPVKEATQL [F6T], the “area with substrate ENLYEQS” value worked out at 0.067, the “area with substrate ENLYGQS” value is 0.0424, the “area with substrate ENLYNQS” value was 0.0821 and the “area with substrate ENLYQQS” value amounted to 0.054.

Consider MGESLAKGPRDYNPISSSICHLTNESDGHTTSLYGIGFGPFIITNKHLFRRNNGTLVVQSLHGVFKVKDTTTLQQHLVDGRDMIIIRMPKDFPPFPQKLKFREPQREERICLVTTNFQTKSMSSMVSDTSCTFPSGDGIFWKHWIQTKDGQCGSPLVSTRDGFIVGIHSASNFTNTNNYFTSVPKNFMELLTNQEAQQWVSGWRLNADSVLWGGHKVFMVKPEEPFQPVKEATQL [F6A], for which the “area with substrate ENLYEQS” value is 0.0714.

As for MGESLFKLPRDYNPISSSICHLTNESDGHTTSLYGIGFGPFIITNKHLFRRNNGTLVVQSLHGVFKVKDTTTLQQHLVDGRDMIIIRMPKDFPPFPQKLKFREPQREERICLVTTNFQTKSMSSMVSDTSCTFPSGDGIFWKHWIQTKDGQCGSPLVSTRDGFIVGIHSASNFTNTNNYFTSVPKNFMELLTNQEAQQWVSGWRLNADSVLWGGHKVFMVKPEEPFQPVKEATQL [G8L], the “area with substrate ENLYEQS” value is 0.0772, the “area with substrate ENLYKQS” value was determined as 0.0816, the “area with substrate ENLYLQS” value amounted to 0.0848 and the “area with substrate ENLYNQS” value is 0.069. In addition, the “area with substrate ENLYPQS” value came out at 0.0546 and the “area with substrate ENLYRQS” value came to 0.0604.

With MGESLFKGPRDYNPISSSICHLTNESDGHTTSLYGIGFGPFIITNKHLFNRNNGTLVVQSLHGVFKVKDTTTLQQHLVDGRDMIIIRMPKDFPPFPQKLKFREPQREERICLVTTNFQTKSMSSMVSDTSCTFPSGDGIFWKHWIQTKDGQCGSPLVSTRDGFIVGIHSASNFTNTNNYFTSVPKNFMELLTNQEAQQWVSGWRLNADSVLWGGHKVFMVKPEEPFQPVKEATQL [R50N], the “area with substrate ENLYEQS” value was determined as 0.0656, the “area with substrate ENLYGQS” value came to 0.0595 and the “area with substrate ENLYWQS” value was 0.0872.

Turning to MGESLFKGPRDYNPISSSICHLTNESDGHTTSLYGIGFGPFIITNKHLFRRNNGTLVVQSLHGVFKVKDTTTLQQHLVDGRDMIIIRMPKDFPPFPQKLKFREPQREERICLVTTNFQTKSMSSMVSDTSCTFPSGDGIFWKHWIQTKDGQCGSPLVSTRDGFIVGIHSASNFTNTNNYFTSVPKNFMELLTNQEAQQWVSGWRLNADSVLWGGHKVFMVKPEEPFQPVKEAPQL [T233P], the “area with substrate ENLYDQS” value was determined as 0.0563 and the “area with substrate ENLYMQS” value turned out to be 0.0887.

As to MGESLFSGPRDYNPISSSICHLTNESDGHTTSLYGIGFGPFIITNKHLFRRNNGTLVVQSLHGVFKVKDTTTLQQHLVDGRDMIIIRMPKDFPPFPQKLKFREPQREERICLVTTNFQTKSMSSMVSDTSCTFPSGDGIFWKHWIQTKDGQCGSPLVSTRDGFIVGIHSASNFTNTNNYFTSVPKNFMELLTNQEAQQWVSGWRLNADSVLWGGHKVFMVKPEEPFQPVKEATQL [K7S], the “area with substrate ENLYEQS” value came to 0.0583, the “area with substrate ENLYMQS” value was determined as 0.113, the “area with substrate ENLYPQS” value was found to be 0.0927 and the “area with substrate ENLYSQS” value is 0.0807. Besides, the “area with substrate ENLYYQS” value stood at 0.0849.

Take MGESLFWGPRDYNPISSSICHLTNESDGHTTSLYGIGFGPFIITNKHLFRRNNGTLVVQSLHGVFKVKDTTTLQQHLVDGRDMIIIRMPKDFPPFPQKLKFREPQREERICLVTTNFQTKSMSSMVSDTSCTFPSGDGIFWKHWIQTKDGQCGSPLVSTRDGFIVGIHSASNFTNTNNYFTSVPKNFMELLTNQEAQQWVSGWRLNADSVLWGGHKVFMVKPEEPFQPVKEATQL [K7W]: the “area with substrate ENLYEQS” value came to 0.0504, the “area with substrate ENLYHQS” value is 0.0514, the “area with substrate ENLYRQS” value is 0.0617 and the “area with substrate ENLYSQS” value was 0.0538.

MGESLFHGPRDYNPISSSICHLTNESDGHTTSLYGIGFGPFIITNKHLFRRNNGTLVVQSLHGVFKVKDTTTLQQHLVDGRDMIIIRMPKDFPPFPQKLKFREPQREERICLVTTNFQTKSMSSMVSDTSCTFPSGDGIFWKHWIQTKDGQCGSPLVSTRDGFIVGIHSASNFTNTNNYFTSVPKNFMELLTNQEAQQWVSGWRLNADSVLWGGHKVFMVKPEEPFQPVKEATQL [K7H]: the “area with substrate ENLYEQS” value worked out at 0.06, the “area with substrate ENLYKQS” value was 0.0539, the “area with substrate ENLYMQS” value was found to be 0.09 and the “area with substrate ENLYQQS” value came to 0.0597. In addition, the “area with substrate ENLYSQS” value worked out at 0.0674.

For the variant MGESLFKGPRDYNPISSSICHLTNESDGHTTSLYGIGFGPFIITNKHLFRRNNGTLVVQSFHGVFKVKDTTTLQQHLVDGRDMIIIRMPKDFPPFPQKLKFREPQREERICLVTTNFQTKSMSSMVSDTSCTFPSGDGIFWKHWIQTKDGQCGSPLVSTRDGFIVGIHSASNFTNTNNYFTSVPKNFMELLTNQEAQQWVSGWRLNADSVLWGGHKVFMVKPEEPFQPVKEATQL [L61F], the “area with substrate ENLYEQS” value was determined as 0.0723, the “area with substrate ENLYGQS” value stood at 0.0617 and the “area with substrate ENLYIQS” value is 0.0915.

Consider MGESLFKGPRDYNPISSSICHLTNESDGHTTSLYGIGFGPFIITNKHLFRRNNGTLVVQGLHGVFKVKDTTTLQQHLVDGRDMIIIRMPKDFPPFPQKLKFREPQREERICLVTTNFQTKSMSSMVSDTSCTFPSGDGIFWKHWIQTKDGQCGSPLVSTRDGFIVGIHSASNFTNTNNYFTSVPKNFMELLTNQEAQQWVSGWRLNADSVLWGGHKVFMVKPEEPFQPVKEATQL [S60G], for which the “area with substrate ENLYEQS” value amounted to 0.0516, the “area with substrate ENLYHQS” value was 0.0613, the “area with substrate ENLYIQS” value was 0.114 and the “area with substrate ENLYKQS” value amounted to 0.0685. In addition, the “area with substrate ENLYLQS” value turned out to be 0.067, the “area with substrate ENLYQQS” value was determined as 0.0919 and the “area with substrate ENLYRQS” value was 0.0693.
